These results are taken from PubChem BioAssay AID2528 (National Center for Advancing Translational Sciences (NCATS), 2010).

Molecules are shown by their SMILES. “And” between values parts separate entries of the source, which are not always exact repeats. Equal values may be shown once. Hit rate of the full screen: of about 350,000 compounds, about 700 (0.2%) were called active. Calls follow the shape of the dose curve; as a rule, active = well fitted inhibition curve with a large enough effect; inconclusive = small, poorly fitted or top-dose-only effect; inactive = flat fitted curve, though single readings scatter. The entries are a selection whose mix differs from that of the whole data set. The source holds several records for some structures; these can differ, active in one and inactive in another. Bridge positions count the residues as written; N and C are the ends. Square brackets hold non-standard residues; d marks the D form. Peptide text beside a SMILES is read from it. * marks the point of attachment. Octanoyl(6-Me) = CCC(C)CCCCC(=O)*; Dab = NCC[CH](N)C(=O)O
Potency is read from the fitted curve at half-maximal effect.

This assay concerns the target RecQ-like DNA helicase BLM (Homo sapiens) (UniProt P54132). The assay can be described thus: qHTS Assay for Inhibitors of Bloom's syndrome helicase (BLM). Also: nearly all actives have a fitted effect of over 35% in size.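 As to activity change, negative = inhibition: plate controls were vehicle for no effect and no enzyme for full effect.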 Conditions: recombinant BLM DNA unwinding, fluorescence dequenching; series mostly up to 56.1 µM; activity change, negative = inhibition: at the top concentration. A general note: qHTS replaces the single test concentration by a dilution series.
Sequence of UniProt P54132 (P54132 whole entry, looked up): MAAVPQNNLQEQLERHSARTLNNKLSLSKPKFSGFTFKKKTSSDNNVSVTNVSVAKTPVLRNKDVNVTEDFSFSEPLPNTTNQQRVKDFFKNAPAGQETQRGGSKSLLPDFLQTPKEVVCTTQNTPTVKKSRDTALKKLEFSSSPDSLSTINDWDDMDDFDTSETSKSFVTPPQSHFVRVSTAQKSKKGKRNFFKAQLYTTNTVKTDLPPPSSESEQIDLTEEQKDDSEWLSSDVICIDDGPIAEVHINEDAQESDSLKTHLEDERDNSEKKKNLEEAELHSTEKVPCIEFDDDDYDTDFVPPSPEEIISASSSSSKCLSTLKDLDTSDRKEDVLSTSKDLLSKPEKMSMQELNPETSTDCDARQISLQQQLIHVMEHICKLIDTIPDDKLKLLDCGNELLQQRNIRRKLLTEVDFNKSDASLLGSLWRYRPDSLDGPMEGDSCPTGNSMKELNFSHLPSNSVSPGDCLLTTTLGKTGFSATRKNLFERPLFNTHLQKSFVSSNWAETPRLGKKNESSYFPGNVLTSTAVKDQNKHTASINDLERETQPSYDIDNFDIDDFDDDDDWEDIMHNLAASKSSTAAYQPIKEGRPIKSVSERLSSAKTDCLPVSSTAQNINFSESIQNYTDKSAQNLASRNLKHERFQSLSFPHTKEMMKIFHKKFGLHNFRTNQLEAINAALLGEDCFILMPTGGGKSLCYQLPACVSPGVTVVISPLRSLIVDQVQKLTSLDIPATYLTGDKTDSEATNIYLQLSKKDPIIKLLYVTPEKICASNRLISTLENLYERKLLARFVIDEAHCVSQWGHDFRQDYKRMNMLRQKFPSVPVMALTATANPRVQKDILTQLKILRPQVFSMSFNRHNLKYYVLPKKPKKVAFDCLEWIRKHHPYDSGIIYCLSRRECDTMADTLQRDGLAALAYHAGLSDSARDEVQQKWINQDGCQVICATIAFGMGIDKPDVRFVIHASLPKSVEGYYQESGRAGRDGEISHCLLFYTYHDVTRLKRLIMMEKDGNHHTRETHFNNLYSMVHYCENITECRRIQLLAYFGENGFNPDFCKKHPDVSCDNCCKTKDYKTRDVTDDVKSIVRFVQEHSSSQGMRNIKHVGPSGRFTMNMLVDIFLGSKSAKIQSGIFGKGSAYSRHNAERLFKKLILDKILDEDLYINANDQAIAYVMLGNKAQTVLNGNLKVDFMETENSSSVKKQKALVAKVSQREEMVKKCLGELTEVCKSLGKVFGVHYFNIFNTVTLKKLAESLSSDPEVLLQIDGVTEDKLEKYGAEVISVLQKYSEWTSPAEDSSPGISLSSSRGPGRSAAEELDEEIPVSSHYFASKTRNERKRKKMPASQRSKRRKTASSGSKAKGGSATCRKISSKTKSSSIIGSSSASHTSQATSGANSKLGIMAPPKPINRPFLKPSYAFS
On to `O=C(O)C(Cc1ccccc1)N1C(=O)/C(=C/C=C/c2ccco2)SC1=S` (stereo unspecified), for which the Potency was active: 22.4 µM. Still for that read-out and setting: for `N[C@H](CC(=O)O)C(=O)O` the value was “inactive”.

Turning to `CCOC(=O)N1CCC(=C2c3ccc(Cl)cc3CCc3cccnc32)CC1`, the Potency result is “inactive”. Consider `CCCN1CC(CSC)C[C@H]2c3cccc4[nH]cc(c34)C[C@H]21` (stereo partly specified), for which the “activity change, negative = inhibition” value was inactive: -6.38%. Consider `COCCCC/C(=N\OCCN)c1ccc(C(F)(F)F)cc1`, for which the Potency result was “inactive”. In the case of `CC(=O)[C@]1(O)Cc2c(O)c3c(c(O)c2[C@@H](O[C@H]2C[C@H](N)[C@H](O)[C@H](C)O2)C1)C(=O)c1c(O)cccc1C3=O`, the Potency was active: 28.2 µM.

For the compound `CC#CCOC(=O)c1c(C)nc2sc3c(c2c1N)CC[C@@H](O)C3`, the “activity change, negative = inhibition” value is inactive: -4.83%. Turning to `N#C/C(=C\c1ccc(OC(=O)c2cccs2)cc1)c1nc2ccccc2[nH]1`, the Potency is active: 20 µM.

In the case of `Cc1ccc(N(CC2=NCCN2)c2cccc(O)c2)cc1`, the Potency result was “inactive”.

On to `Oc1cc2c(cc1O)[C@@H](c1ccccc1)CNCC2`, for which the “activity change, negative = inhibition” value was inactive: -7.55%. For the compound `CC[C@]1(O)CC2CN(CCc3c([nH]c4ccccc34)[C@@](C(=O)OC)(c3cc4c(cc3OC)N(C)[C@H]3[C@@](O)(C(=O)OC)[C@H](OC(C)=O)[C@]5(CC)C=CCN6CC[C@]43[C@@H]65)C2)C1` (stereo partly specified), the “activity change, negative = inhibition” value was inactive: -1.86%. With `COC(=O)C1C(O)CC[C@H]2CN3CCc4c([nH]c5ccccc45)C3C[C@H]12` (stereo partly specified), the “activity change, negative = inhibition” value was inactive: -1.27%. For the compound `COc1cccc2c1C(=O)c1c(O)c3c(c(O)c1C2=O)C[C@@](O)(C(=O)CO)C[C@@H]3OC1C[C@@H](N)[C@H](O)[C@H](C)O1` (stereo partly specified), the Potency is active: 28.2 µM. Turning to `NCCCCC(=O)O`, the “activity change, negative = inhibition” value was inactive: 2.46%. For `COC(=O)[C@H]1[C@H]2CC3c4[nH]c5ccccc5c4CCN3C[C@@H]2CC[C@@H]1O` (stereo partly specified), the Potency entry is “inactive”.

In the case of `Cc1ccccc1[C@@H](OCCN(C)C)c1ccccc1`, the “activity change, negative = inhibition” value is inactive: 2.25% [at 21.4 µM].

Take `C[C@@]1(C(=O)O)NCCc2cc(O)c(O)cc21`: the Potency was active: 8.91 µM. Still for that read-out and setting: for `CC(C)NC[C@H](O)c1ccc(NS(C)(=O)=O)cc1` the value was “inactive”. Take `N#C/C(=C\c1ccc(O)c(O)c1)C(=O)Nc1ccccc1`: the “activity change, negative = inhibition” value is inactive: -18.8%.

Take `CC(C)NC(=O)CC(=O)N/N=C/c1cccs1`: the Potency is active: 17.8 µM. `O=C(c1ccc(-n2cccn2)cc1)N1CCc2c([nH]c3ccccc23)C1c1ccccn1` (stereo unspecified): the Potency was active: 12.6 µM. Still for that read-out and setting: for `O=C1NC(=O)C(c2ccccc2[N+](=O)[O-])=C1Nc1ccc(O)c(Cl)c1` the value was “inactive”. `Oc1ccc(C2CNCCc3c2cc(O)c(O)c3Cl)cc1` (stereo unspecified): the “activity change, negative = inhibition” value is inactive: -21.3%. The same measure, in the same setting: for `C[C@](N)(Cc1ccc(O)cc1)C(=O)O` the value was inactive: 1.21%.

On to `CCNC(=O)[C@H]1O[C@@H](n2cnc3c(N)nc(NCCc4ccc(CCC(=O)O)cc4)nc32)[C@H](O)[C@@H]1O`, for which the “activity change, negative = inhibition” value is inactive: 0.126%. As to `Oc1ccc(NCc2cccc(OCc3ccc(F)cc3)c2)cc1`, the Potency is active: 14.1 µM. As to `CCCCCCCCCCCCCCCC(=O)O[C@H](CC(=O)O)C[N+](C)(C)C`, the “activity change, negative = inhibition” value is inactive: -11.3%. For `N=C1CCC(=N)c2c1c(O)c1ccccc1c2O`, the Potency was active: 31.6 µM. In the case of `c1ccc2c(c1)CCCC2C1=NCCN1` (stereo unspecified), the Potency entry is “inactive”. On to `C[C@@]12C[C@@H](O)[C@H]3[C@@H](CCC4=CC(=O)CC[C@]43C)[C@H]1CC[C@H]2C(=O)CO`, for which the “activity change, negative = inhibition” value was inactive: 0.922% [at 21.4 µM]. Consider `N[C@@H](CC(=O)O)C(=O)O`, for which the “activity change, negative = inhibition” value is inactive: -4.67%. Same read-out and setting: for `Oc1ccc(NCc2ccc(OCc3ccccc3)cc2)cc1` the value was inactive: -10%. In the case of `O=C(/C=C/c1ccc(O)c(O)c1)OC(Cc1ccc(O)c(O)c1)C(=O)O` (stereo unspecified), the Potency entry was “inactive”. The same measure, in the same setting: for `NNCCc1ccccc1` the value was “inactive”; for `CC(C)CN(C(=O)COC(=O)c1cc2c(s1)CCC2)C1CCS(=O)(=O)C1` (stereo unspecified), active: 25.1 µM; for `O=C(O)c1cc(O)c2c(c1)[C@H]([C@H]1c3cc(C(=O)O)cc(O)c3C(=O)c3c(O[C@@H]4OC(CO)C(O)C(O)C4O)cccc31)c1cccc(O[C@@H]3OC(CO)C(O)C(O)C3O)c1C2=O` (stereo partly specified), active: 3.16 µM. Regarding `Oc1ccc(/C=C\c2cc(O)cc(O)c2)cc1`, the Potency entry is “inactive”. For `C=CCn1c(NC(=O)c2ccccc2Cl)c(C#N)c2nc3ccccc3nc21`, the Potency is active: 1 µM. As for `CC(C)(C=O)Cc1cc(C(C)(C)C)c(O)c(C(C)(C)C)c1`, the “activity change, negative = inhibition” value was inactive: -9.01%. Same read-out and setting: for `Cc1ccccc1N1CCN(S(=O)(=O)CC23CCC(CC2NC(=O)C(N)CCS(C)(=O)=O)C3(C)C)CC1` (stereo unspecified) the value was inactive: -4.36%; for `CCOC(=O)C1=C(C)NC(C)=C(C(=O)OC)[C@H]1c1cccc([N+](=O)[O-])c1`, inactive: -9.9%. As for `Cc1cc(-c2ccc(N=Nc3ccc4c(S(=O)(=O)O)cc(S(=O)(=O)O)c(N)c4c3O)c(C)c2)ccc1N=Nc1ccc2c(S(=O)(=O)O)cc(S(=O)(=O)O)c(N)c2c1O`, the Potency entry is “inactive and active: 11.2 µM”.

Turning to `C=CC(N)CCC(=O)O` (stereo unspecified), the Potency result was “inactive”. With `CCOc1ccc(NC(=S)Nc2ccc3nsnc3c2)cc1`, the Potency is active: 3.98 µM. Still for that read-out and setting: for `Oc1cc(O)c2c(c1)O[C@H](c1ccc(O)c(O)c1)[C@@H](O)C2` the value was “inactive”; for `CCC(C)CCCCC(=O)NC(CCN)C(=O)NC(C(=O)NC(CCN)C(=O)NC1CCNC(=O)C(C(C)O)NC(=O)C(CCN)NC(=O)C(CCN)NC(=O)C(CC(C)C)NC(=O)C(Cc2ccccc2)NC(=O)C(CCN)NC1=O)C(C)O` (stereo unspecified) ({Octanoyl(6-Me)}-[Dab]T[Dab][Dab][Dab]FL[Dab][Dab]T; lactam 4-C; configuration not given here), active: 7.94 µM.
